# Reference: PubChem BioAssay AID485294 (National Center for Advancing Translational Sciences (NCATS), 2010)
# Screen size: about 370,000 compounds; about 150 (0.041%) were called active. Inconclusive results, whose numbers are uncertain, are shown with a selection of clear calls. Calls come from the whole dose curve; as a rule, active = well fitted inhibition curve with a large enough effect; inconclusive = small, poorly fitted or top-dose-only effect; inactive = flat fitted curve, though single readings scatter. No potency is given beside an inconclusive call; the fits are too rough.
# Biological target: Beta-lactamase (Escherichia coli (strain K12)) (UniProt P00811)
# Assay: qHTS Inhibitors of AmpC Beta-Lactamase (assay with detergent); note: nearly all actives have a fitted effect of over 25% in size;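 for activity change, negative = inhibition: 0% = no-compound wells and -100% = no-enzyme wells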
# Settings: AmpC hydrolysis of nitrocefin, absorbance 480 nm, 0.01% Triton; activity change, negative = inhibition: at 114 µM (top of the series)
# Outline: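 20 mM phosphate pH 7.0 + 0.01% (detergent screen) or 0.0001% Triton X-100; 5.3 nM AmpC reagent; cpd preinc 15 min RT; nitrocefin (800 uM stock) to start; A480 q20 s × 4 min; Activity was normalised to no-enzyme and no-compound control wells.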
# Potency is the fitted concentration of half-maximal effect; tags give direction and shape of the fitted curve.
# UniProt P00811, sequence (P00811 whole entry, looked up): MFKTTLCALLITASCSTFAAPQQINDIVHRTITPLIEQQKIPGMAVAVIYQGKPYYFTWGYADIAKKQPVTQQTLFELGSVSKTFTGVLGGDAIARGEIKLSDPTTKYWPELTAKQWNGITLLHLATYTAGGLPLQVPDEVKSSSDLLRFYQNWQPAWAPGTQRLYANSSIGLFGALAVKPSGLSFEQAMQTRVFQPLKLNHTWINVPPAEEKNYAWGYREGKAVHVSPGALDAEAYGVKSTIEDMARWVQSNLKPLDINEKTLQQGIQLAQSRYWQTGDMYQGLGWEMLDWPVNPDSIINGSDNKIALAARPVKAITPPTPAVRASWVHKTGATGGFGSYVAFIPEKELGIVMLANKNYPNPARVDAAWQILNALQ
SMILES,Potency,"activity change, negative = inhibition"
Cc1ccc(N2CC(C(=O)NC3=NCCS3)CC2=O)cc1C (configuration not stated),"inconclusive [inhibitor, full curve, poor fit]",
CC1=C(C(=O)OCc2ccc(C)cc2)C(c2ccccc2Cl)CC(=O)N1 (configuration not stated),,inactive: -0.201%
CCC(CC)NC(=O)Cc1ccccc1OC,"inconclusive [inhibitor, single point]",
O=c1[nH]c(=S)n(C2CC2)c(O)c1/C=N/N1CCOCC1,"inconclusive [inhibitor, single point]",
COc1ccc(/C=N/c2nc3ccccc3n2CCN2CCCCC2)cc1OC,"inconclusive [inhibitor, single point]",
CCN(CC)C(=O)CSc1nnc(-c2cnccn2)n1-c1ccc(C)cc1,"inconclusive [inhibitor, full curve, poor fit]",
COc1ccc2oc(=O)cc(-c3cc4cccc(OC)c4o3)c2c1,"inconclusive [inhibitor, full curve, poor fit]",
CCOC(=O)CNC(=O)CSc1nnc(-c2ccco2)n1N,,inactive: -13.7%
COc1ccc(/C=C/C(=O)CCC(=O)O)cc1,,inactive: -5.15%
O=C(NCc1ccccc1)C(c1ccccc1)N(C(=O)c1csnn1)C1CCCC1 (configuration not stated),,inactive: -3.71%
NC(=O)c1ccccc1NC(=O)Nc1cccc2ccccc12,,inactive: 3.41%
COc1cccc(C2C(C(N)=O)=C(C)Nc3nc(-c4ccccc4Cl)nn32)c1 (configuration not stated),"inconclusive [inhibitor, full curve]",
CC(=O)c1ccc(NS(=O)(=O)c2ccc3c(c2)N(C(C)=O)CCO3)cc1,"inconclusive [inhibitor, full curve, poor fit]",
CCC(=O)NC(c1ccc(OC)c(OC)c1)c1cc(Cl)c2cccnc2c1O (configuration not stated),"inconclusive [inhibitor, single point]",
C=C(C)Cn1c(C2CC(=O)N(Cc3ccccc3)C2)nc2ccccc21 (configuration not stated),"inconclusive [inhibitor, full curve, poor fit]",
CC(C(=O)NC1CCCC1)N(Cc1ccc2c(c1)OCO2)C(=O)c1snc(C(N)=O)c1N (configuration not stated),"inconclusive [inhibitor, full curve, poor fit]",
CN(C)C(=O)CN1CCN(C(=O)CCl)CC1,"inconclusive [inhibitor, single point]",
COc1cc(CNCCc2ccccc2)ccc1OCc1ccc(Cl)nc1,"inconclusive [inhibitor, partial curve, poor fit]",
CCc1ccc(NC(=O)c2cc(C)on2)cc1,"inconclusive [inhibitor, partial curve]",
CCN(CC)C(=O)c1ccc(NC(=O)c2cccc(S(=O)(=O)N3CCN(C)CC3)c2)cc1,,inactive: 0.754%
Cc1ccc(-n2ncc(C(=O)NCC3CCN(C4CCCC4)C3)c2C2CCN(C(=O)OC(C)(C)C)CC2)cc1 (configuration not stated),,inactive: -9.83%
O=C(Nc1cccc(C(F)(F)F)c1)c1ccc(-n2cncn2)nc1,"inconclusive [inhibitor, full curve]",
Cc1ccc2c(c1)C(c1ccc(F)cc1)N(C(=O)c1ccc(S(=O)(=O)N(C)C)cc1)CC(=O)N2 (configuration not stated),"inconclusive [inhibitor, partial curve, poor fit]",

SMILES,Potency,"activity change, negative = inhibition"
CC(C)(C)OC(=O)N1CCC(C(=O)N2CCOCC2)CC1,"inconclusive [inhibitor, full curve, poor fit]",
O=C(Nc1ccccc1O)c1ccc(C(=O)c2ccccc2)o1,"inconclusive [inhibitor, partial curve]",
COc1ccc(C2NC(=O)c3n[nH]c(C)c32)c(OC)c1 (configuration not stated),"inconclusive [inhibitor, full curve, poor fit]",
COc1ccc(-c2nc(SCc3ccccc3)n(S(C)(=O)=O)n2)cc1,"inconclusive [inhibitor, partial curve]",
COc1ccc(NC(=O)CSc2nnc3ccc(-c4ccccn4)nn23)cc1,"inconclusive [inhibitor, full curve, poor fit]",
O=C(NCc1ccco1)c1cc(Cl)nc(Cl)c1,"inconclusive [inhibitor, full curve, poor fit]",
COc1ccccc1C(=O)Nc1nnc(SCc2cc(=O)n3ccc(C)cc3n2)s1,,inactive: 16.2%
O=C(Nc1ccccc1C(=O)NC(Cc1ccccc1)C(=O)NC1CCCCC1)c1ccccc1 (configuration not stated),"inconclusive [inhibitor, full curve]",
COc1ccc(NC(=S)Nc2ccc3nsnc3c2)cc1,"inconclusive [inhibitor, full curve]",
COc1ccc(CNC(=O)COC(=O)c2nc3nc(C)cc(C)n3n2)cc1,"inconclusive [inhibitor, full curve, poor fit]",
C[N+]1(C2CCC3CCCC2C3O)CCCCC1 (configuration not stated),"inconclusive [inhibitor, partial curve]",
O=C(NNC(=O)C1CCCN(c2ncccn2)C1)c1ccc(F)cc1 (configuration not stated),"inconclusive [inhibitor, full curve]",
CCOC(=O)C1CCC2(CC1)C(C#N)=C(N)Oc1n[nH]c(C)c12 (configuration not stated),"inconclusive [inhibitor, single point]",
CN1C(=O)NC(c2ccccc2)C2=C1CN(c1cccc(C(F)(F)F)c1)C2=O (configuration not stated),"inconclusive [inhibitor, full curve]",
O=C(CCn1cccn1)Nc1ccc(-c2ccno2)cc1,,inactive: -11.9%
Cc1ccc(CNC(=O)c2cc(=O)c3ccccc3o2)cc1,"inconclusive [inhibitor, full curve, poor fit]",
O=C(/C=C/c1ccc(Cl)cc1)N1CCOCC1,,inactive: -6.93%
Cc1noc(C)c1C(=O)N1CCC(Cc2ccccc2)CC1,"inconclusive [inhibitor, full curve, poor fit]",
COc1ccc(Cn2c(N)c(C(=O)NCc3ccco3)c3nc4ccccc4nc32)cc1,,inactive: -0.279%
Cc1ccc(NC(=O)COC(=O)c2ccc(C)c(S(=O)(=O)N3CCOCC3)c2)cc1,"inconclusive [inhibitor, full curve, poor fit]",
Cc1ccc(S(=O)(=O)N[C@H](C(=O)N2CCC3(O)CCCCC3C2)c2ccccc2)cc1 (some centres not stated),,inactive: -10.1%
Cc1ccc(-n2c(O)c(/C=N/Nc3ccc(S(=O)(=O)N4CCOCC4)cc3[N+](=O)[O-])c3ccccc3c2=O)c(C)c1,"inconclusive [inhibitor, partial curve, poor fit]",
O=C(c1ccco1)N1CCN(C(=O)N2c3ccccc3Sc3ccccc32)CC1,"inconclusive [inhibitor, single point]",

SMILES,Potency,"activity change, negative = inhibition"
Cc1cccc(C(=O)O/N=C(\N)c2cccc([N+](=O)[O-])c2)c1,,inactive: -8.42%
Oc1oc(-c2ccccc2)nc1/C=N/c1nccs1,"inconclusive [inhibitor, full curve, poor fit]",
CCc1ccc(N(CC(=O)O)S(=O)(=O)c2c(C)noc2C)cc1,"inconclusive [inhibitor, full curve, poor fit]",
COc1ccccc1N(C(=O)c1snc(C(N)=O)c1N)C(C(=O)NC1CCCC1)c1ccc(N(C)C)cc1 (configuration not stated),,inactive: -5.55%
Cc1oc(-c2ccc(C(=O)NCc3ccccc3)cc2)nc1CS(=O)(=O)c1ccccc1,"inconclusive [inhibitor, single point]",
CCOC(=O)c1c(N)sc2c1C1CCN2CC1,"inconclusive [inhibitor, partial curve, poor fit]",
O=C(NC1CCCC1)c1ccc2c(c1)N(Cc1ccccc1F)C(=O)c1ccccc1S2,,inactive: 6.43%
CCC(=O)NC(C)C(c1cccs1)N1CCN(Cc2ccccc2)CC1 (configuration not stated),"inconclusive [inhibitor, full curve]",
CC1=C(C(=O)Nc2cccnc2)C(c2ccccc2)n2nc(SCc3ccccc3F)nc2N1 (configuration not stated),,inactive: -8.08%
Cn1c(-c2sccc2OCc2cccc(C(F)(F)F)c2)n[nH]c1=S,"inconclusive [inhibitor, full curve, poor fit]",
O=C(O)c1ccccc1-c1ccccc1C(=O)NCc1ccccc1Cl,"inconclusive [inhibitor, single point]",
Cc1nnc(NC(=O)C2CCCN(S(=O)(=O)Cc3ccccc3)C2)s1 (configuration not stated),"inconclusive [inhibitor, single point]",
O=C(COC(=O)c1ccc(O)cc1)Nc1cc(S(=O)(=O)N2CCOCC2)ccc1Cl,,inactive: -12.2%
O=C(NCCCN1CCOCC1)c1ccc(Br)s1,"inconclusive [inhibitor, full curve, poor fit]",
CCN(CCO)c1nc(N2CCCCC2)c2cnn(C)c2n1,,inactive: -8.23%
O=C(Nc1ccc(F)cc1F)c1ccc2c(c1)OCCO2,"inconclusive [inhibitor, partial curve]",
Cc1cccn2c(=O)nc(SCC(=O)N3CCCCC3)nc12,"inconclusive [inhibitor, partial curve]",
Cc1ccc(SCc2nc(-c3ccccn3)no2)cc1,"inconclusive [inhibitor, full curve, poor fit]",
Nc1c(C(=O)NCCC2=CCCCC2)sc2ccc(S(=O)(=O)N3CCCCC3)cc12,"inconclusive [inhibitor, full curve]",
O=C(NC(NC1CCS(=O)(=O)C1)C(=O)c1cccs1)c1ccccc1 (configuration not stated),"inconclusive [inhibitor, full curve]",
CCc1ccccc1Nc1nc(N)nc(COC(=O)CCNS(=O)(=O)c2ccccc2)n1,"inconclusive [inhibitor, single point]",
